From PubChem BioAssay AID1508623 (National Center for Advancing Translational Sciences (NCATS), 2021)
Hit rate of the full screen: of about 48,000 compounds, about 450 (0.94%) were called active. About 19% were inconclusive and are not listed. The call rests on the fitted dose curve; in most records, active means well fitted inhibition curve with a large enough effect; inconclusive means small, poorly fitted or top-dose-only effect; inactive means no such curve, though single readings can be large or run the other way. The list shows a part of the results.

Experiment: Primary qHTS for Identification of Small Molecule Inhibitors of Huntingtin Promoter Activity; further: nearly all actives have a fitted effect of over 50% in size
Settings: HEK293 HTT promoter firefly luciferase reporter (activity 0% = vehicle and -100% = no light), 24 h; series mostly up to 57.5 µM; activity change, negative = inhibition: at the top concentration
Outline: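 HEK293 cells carrying firefly luciferase reporters were seeded at 2,500 per well in Opti-MEM and cultured for 24 h. They were then treated with compounds at up to 57.5 uM final for 24 h at 37 degrees C before Dual-Glo luminescence readout.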

Activity change, negative = inhibition, inactive:
CCOCCn1ccc2c(OCC(=O)Nc3ccc(C(N)=O)cc3)cccc2c1=O 0%
COc1ccc(C2NC(=O)N(C)C3=C2C(=O)N(c2ccc(Br)cc2)C3)cc1 (centres undefined) -18.8%
CCCc1nn2c(=O)cc(COC(=O)c3ccc(NC(=O)COc4ccc(F)cc4)cc3)nc2s1 -29.9%
CN(C)c1ccc(CNC(=O)C2CCN(c3nc4ccccc4[nH]3)CC2)cc1 -4.34%
Cc1cc(S(=O)(=O)N2CCN(Cc3noc(CCC(=O)N4CCCCC4)n3)CC2)ccc1F -28.8%
COC(=O)c1cc2occc2n1Cc1nc(-c2ccccc2)oc1C -17.6%
COc1ccc(Cn2c(CCC(=O)NCc3ccc(Cl)cc3)nc3cccnc32)cc1 -11%
CCOC(=O)COc1ccc(C2C(C(=O)OC)=C(C)NC3=C2C(=O)c2ccccc23)cc1Cl (centres undefined) -6.05%
COc1cccc(CNC(=O)c2cnc3sc(N4CCCC4)nn3c2=O)c1OC -2.42%
CSc1ccc(CCNC(=O)NCc2noc3ccccc23)cc1 -30.2%
Cc1ccc(C(=O)NCC(c2ccc3c(c2)OCO3)N2CCOCC2)cc1C (centres undefined) -21%
CCOC(=O)c1cc(S(=O)(=O)Nc2cc(OC)ccc2OC)[nH]n1 -18.5%
COc1ccc(CNc2nc(-c3ccco3)nn2S(=O)(=O)c2ccc(Cl)cc2)cc1OC -8.36%
COc1ccc(Cl)cc1NC(=O)c1cc2c(=O)n3ccccc3nc2s1 6.98%
COc1ccc(-c2c(C#N)c(SCC(=O)Nc3ccccc3C)nc(C)c2C(=O)Nc2ccc(Cl)cc2)cc1 -27.9%
COC(=O)c1c(NC(=O)CCCOc2cccc(C)c2)sc2c1CCC2 -14.5%
Cc1cc(O)c(C(c2cccc(F)c2)N2CCN(c3ccccc3)CC2)c(=O)n1Cc1ccco1 (centres undefined) -5.82%
Cc1cc2c(cc1S(N)(=O)=O)S(=O)(=O)CCC2 11.7%
C[C@H]1O[C@H](O[C@H]2[C@H](O)[C@@H](O)[C@@H](O[C@H]3[C@H](O)[C@@H](O)[C@H](O)O[C@@H]3CO)O[C@@H]2CO)[C@H](O)[C@@H](O)[C@@H]1N[C@H]1C=C(CO)[C@@H](O)[C@H](O)[C@H]1O 4.76%
Cc1cc(C)n(-c2nnc(Nc3ccc(C)c(C)c3)c3ccccc23)n1 -21.5%
O=C1Nc2ccccc2Oc2cc(Oc3ccccc3)ccc21 -12.3%
Cc1ccc(C)c(CN2C(=O)c3ccccc3S(=O)(=O)c3ccc(C(=O)OCC4CCCO4)cc32)c1 (centres undefined) -15.3%
CCCC(=O)Nc1nnc(S(=O)(=O)N(C)Cc2ccc(Cl)cc2)s1 4.67%
CC(C)c1ccc(S(=O)(=O)c2nnn3c2nc(N2CCCC2)c2sccc23)cc1 -6.95%
Cn1c(=O)[nH]c2cc(-c3noc(-c4ccc(Br)cc4)n3)ccc21 -4.64%
Cc1cccc(-c2nn3c(=O)cc(CN4CCN(C(=O)/C=C/c5ccccc5)CC4)nc3s2)c1 -24.5%
Cc1cnc(Nc2cccc(CN3CCOCC3)c2)nc1Nc1cccc(S(=O)(=O)NC(C)(C)C)c1 -8.5%
COc1cc2c(C(=O)Nc3cc(OC)c(OC)c(OC)c3)cn(C)c(=O)c2cc1OC -4.66%
O=C(CC1N=C2c3ccccc3N=C(SCc3ccc(F)cc3)N2C1=O)NCc1ccc2c(c1)OCO2 (centres undefined) 0%
Cc1ccc(NC(=O)CSc2nnc3ccc4ccccc4n23)cc1 -12.6%
O=C(NCCN1CCN(c2cccc(Cl)c2)CC1)Nc1ccccc1 -17.8%
CCc1ccc(NC(=O)c2ccc(-c3ccccc3)s2)cc1 22%
CCOC(=O)C1CCN(c2ncnc3c2nc2n3CCCCC2)CC1 3.37%
Cc1cccc(C(=O)NCC(c2ccco2)S(=O)(=O)c2cccs2)c1 (centres undefined) -5.78%
Cc1cccc(NC(=O)c2ccc(-c3ccccc3)s2)c1 44.6%
CCc1cnc2c(c1SCC(=O)NCc1ccccc1Cl)c(=O)n(C)c(=O)n2C -5.36%
CCC(Oc1ccccc1)C(=O)Nc1nnc(S(=O)(=O)N(CC)CC)s1 (centres undefined) -24.7%
Brc1cccc(-c2nnn3c2nc(NCc2ccc4c(c2)OCO4)c2ccccc23)c1 20.6%
COc1ccc(-n2ncc(C(=O)NCc3ccco3)c2C2CCN(C(=O)OC(C)(C)C)CC2)cc1 2.38%
CCCNC(=O)Cn1c(=O)n(CC2CCC(C(=O)NC)CC2)c(=O)c2sccc21 (centres undefined) 1.75%
CCN(CC)S(=O)(=O)c1ccc2c(c1)N(CC(=O)Nc1ccccc1F)C(=O)C1CCCN21 (centres undefined) -10.1%
Cc1ccc(NC(=O)/C(C#N)=C/c2ccc(-c3ccc(Cl)c(C(=O)O)c3)o2)cc1C 22.7%
COc1cccc(NC(=O)C2CCCN(S(=O)(=O)c3cn(C(C)C)cn3)C2)c1 (centres undefined) -26.7%
NCCNCCNCCNCCN -8.28% [at 11.5 µM]
Cc1cccc(C(=O)Nc2ccc(S(=O)(=O)N3CCC(c4nc5ccccc5s4)CC3)cc2)c1 -19.9%
Cc1cc(C)c(NC(=O)CSc2ncc3c(n2)-c2cc(Cl)ccc2N(C)S3(=O)=O)c(C)c1 -5.59%
CCC(C)(C)NC(=O)C1CCN(S(=O)(=O)c2ccc3c(c2)CCCN3C(C)=O)CC1 -19.8%
Cc1ccc(CN2CCC(CNC(=O)c3cnn(-c4ccccc4)c3C3CCN(C(=O)OC(C)(C)C)CC3)CC2)cc1 -1.53%
Cc1ccc2c(c1)C(=O)C(=O)N2Cc1ccc(OCCC(C)C)cc1 -4.76%
COc1ccc(NC(=O)c2oc3ccc(S(=O)(=O)N4CCCCC4)cc3c2C)cc1Cl -22.7%
COc1ccc(NC(=O)c2cc(C(C)=O)n3ccccc23)cc1 29.8%
COc1cc2c(=O)n(Cc3ccco3)c(=O)n(CC(=O)Nc3ccc(F)cc3)c2cc1OC -2.64%
CCOc1cc2[nH]c(=O)n(Cc3ccc(C(=O)N4CCN(c5ccccc5)CC4)cc3)c(=O)c2cc1OCC -26.2%
CSc1ncc(Cl)c(C(=O)Nc2cc(C(F)(F)F)ccc2Cl)n1 0.528%
Cc1nc(-c2ccc(Cl)cc2)sc1CCNC(=O)C(=O)Nc1ccc2c(c1)OCCO2 -33.5%
O=C(O)c1ccc(NCc2nc3ccccc3n2CCOc2ccccc2Cl)cc1 -26.6%
COc1ccc(N(C)C(=O)c2nn(-c3ccc(C)cc3)c(=O)n(C)c2=O)c(OC)c1 -4.44%
Cc1cc(C)cc(NC(=O)N2CCC(C(N)=O)(N3CCCCC3)CC2)c1 4.31%
CCOC(=O)N1CCC(NC(=O)c2cnn(-c3ccc(F)cc3)c2-n2cccc2)CC1 -28%
